The values that follow come from publication PMC10466050, “A comparative study of human and zebrafish glucocorticoid receptor activities of natural and pharmaceutical steroids” (Frontiers in Endocrinology, 2023).

Test [1] addresses zfGR (Danio rerio, UniProt Q1XHK0). Kind of test: Antagonistic activity assessment in presence of 3 nM dexamethasone, UMLN-zfGR cells. Format: cell-based, zebrafish. To be noted: UMLN-zfGR; with 3 nM dexamethasone; % of maximal luciferase activity induced by 100 nM dexamethasone; at 10^-5M.
Test [2] deals with T1, hGR (Homo sapiens, UniProt P04150).
T1 sequence (P04150 1-777): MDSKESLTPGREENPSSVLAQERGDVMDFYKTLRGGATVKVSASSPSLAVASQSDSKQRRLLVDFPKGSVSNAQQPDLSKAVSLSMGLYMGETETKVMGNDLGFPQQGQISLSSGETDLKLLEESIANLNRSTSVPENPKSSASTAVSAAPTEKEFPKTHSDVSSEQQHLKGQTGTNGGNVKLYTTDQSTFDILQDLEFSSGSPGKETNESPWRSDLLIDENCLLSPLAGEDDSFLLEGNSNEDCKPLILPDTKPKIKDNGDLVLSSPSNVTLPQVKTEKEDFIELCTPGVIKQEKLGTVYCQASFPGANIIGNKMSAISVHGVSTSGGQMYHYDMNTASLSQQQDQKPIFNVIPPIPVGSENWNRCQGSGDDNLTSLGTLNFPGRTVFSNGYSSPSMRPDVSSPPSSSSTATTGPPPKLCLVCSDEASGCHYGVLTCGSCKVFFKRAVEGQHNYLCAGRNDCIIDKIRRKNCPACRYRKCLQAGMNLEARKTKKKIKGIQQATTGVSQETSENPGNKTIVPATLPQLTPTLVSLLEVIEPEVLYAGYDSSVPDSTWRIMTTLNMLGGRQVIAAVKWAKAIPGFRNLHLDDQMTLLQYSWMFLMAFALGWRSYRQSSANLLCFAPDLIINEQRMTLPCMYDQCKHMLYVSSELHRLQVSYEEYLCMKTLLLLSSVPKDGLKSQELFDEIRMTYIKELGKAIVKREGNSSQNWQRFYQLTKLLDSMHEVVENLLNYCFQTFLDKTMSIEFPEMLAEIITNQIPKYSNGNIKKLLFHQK
The following applies: HMLN-hGR; with 3 nM dexamethasone; % of maximal luciferase activity induced by 100 nM dexamethasone; at 10^-5M.

Regarding `C[C@]12CCC(=O)C=C1CC[C@@H]1[C@@H]2[C@@H](O)C[C@]2(C=O)[C@@H](C(=O)CO)CC[C@@H]12` [aldosterone], the “% min act (minimal activity)” value in test [1] was found to be 49 ± 5%.

For `C[C@]12CCC(=O)C=C1[C@@H]1C[C@@H]1[C@H]1[C@@H]3[C@@H]4C[C@@H]4[C@@]4(CCC(=O)O4)[C@@]3(C)CC[C@@H]12` [drospirenone], the “% min act (minimal activity)” value in test [2] is 2 ± 1%.
